Out of some 45,000 compounds screened, about 65 (0.1%) were called active. Calls come from the whole dose curve; as a rule, active = well fitted activation curve with a large enough effect; inconclusive = small, poorly fitted or top-dose-only effect; inactive = no such curve, though single readings can be large or run the other way. This is one part of the list.
Target: Galactocerebrosidase (Homo sapiens) (UniProt P54803)
Assay: A Novel Cell-Based Assay to Identify Small Molecules for B -Galactocerebrosidase; note: 0% is about no effect; nearly all actives have a fitted effect of over 65% in size
Details: 145M-Twi-hGALC-G270D cells (Twitcher mouse brain line with human GALC G270D), HMU-beta-Gal fluorescence, 48 h; series mostly up to 57.5 µM; activation: at the top concentration
Outline: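 Mutant human GALC (G270D), stably expressed in a Twitcher mouse brain cell line lacking endogenous GALC, is measured in live-treated cells via 6-hexadecanoylamino-4-methylumbelliferyl-β-galactoside hydrolysis (0.1 mM final, pH 5.2) with fluorescent detection.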

Chain of UniProt P54803 (P54803 whole entry, looked up): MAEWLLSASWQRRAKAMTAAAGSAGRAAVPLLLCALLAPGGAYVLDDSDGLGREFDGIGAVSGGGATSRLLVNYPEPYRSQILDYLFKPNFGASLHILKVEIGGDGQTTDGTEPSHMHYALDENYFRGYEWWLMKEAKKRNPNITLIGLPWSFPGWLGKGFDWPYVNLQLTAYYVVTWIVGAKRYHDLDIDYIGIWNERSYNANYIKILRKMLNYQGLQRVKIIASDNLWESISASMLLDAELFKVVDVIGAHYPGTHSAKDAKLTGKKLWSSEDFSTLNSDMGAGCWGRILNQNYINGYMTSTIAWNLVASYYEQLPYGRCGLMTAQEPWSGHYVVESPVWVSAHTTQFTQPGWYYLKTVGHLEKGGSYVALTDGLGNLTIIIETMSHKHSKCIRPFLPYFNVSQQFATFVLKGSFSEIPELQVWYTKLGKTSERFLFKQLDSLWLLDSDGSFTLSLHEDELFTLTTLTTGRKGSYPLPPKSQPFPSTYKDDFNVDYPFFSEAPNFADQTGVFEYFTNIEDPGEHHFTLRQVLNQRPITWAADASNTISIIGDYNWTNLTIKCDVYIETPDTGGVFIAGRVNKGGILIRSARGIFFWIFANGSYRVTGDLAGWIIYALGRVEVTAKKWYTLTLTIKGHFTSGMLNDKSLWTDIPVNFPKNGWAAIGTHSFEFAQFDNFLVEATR

SMILES | activation
Cc1cccc(-n2c(/C=C/c3cccc4ccccc34)nc3ccccc3c2=O)c1 | inactive: 0.217%
O=c1c2ccccc2nc(/C=C\c2cccc(Br)c2)n1-c1ccc(O)cc1 | inactive: -10.5%
COc1ccc(NC(=O)c2cccn(Cc3ccc(Cl)cc3)c2=O)c(OC)c1 | inactive: -32.1%
CNC(=O)Oc1cccc2ccccc12 | inactive: -9.6%
CCOC(=O)c1cncn1C(C)c1ccccc1 (stereo not given) | inactive: -9.92%
N#Cc1cc2c(nc1SCC(=O)Nc1ccc(Cl)c(C(F)(F)F)c1)C1CCN2CC1 | inactive: -20.2%
CC1=C(C(=O)O)N2C(=O)[C@@H](N)[C@H]2SC1 | inactive: -10.9% [at 23.8 µM]
C[C@]12Cc3cn[nH]c3C[C@@H]1CC[C@@H]1[C@@H]2CC[C@@]2(C)[C@H]1CC[C@]2(C)O | inactive: -15.2%
CC(=O)N[C@H]1[C@H]([C@H](O)[C@H](O)CO)OC(C(=O)O)=C[C@@H]1N=C(N)N | inactive: -11.2%
Cc1ncsc1CCCl | inactive: -14.3%
O=C(Nc1ccccc1C(F)(F)F)c1cccn(Cc2ccccc2)c1=O | inactive: -8.99%
Cc1ccccc1-n1c(/C=C/c2ccccc2F)nc2ccccc2c1=O | inactive: -28.8%
O=C(COc1ccccc1[N+](=O)[O-])N1CCN(CCc2ccccn2)CC1 | inactive: -8.87%
CN(C(=O)CSc1nc2ccc(NC(=O)COc3ccccc3)cc2s1)c1ccccc1 | inactive: -31.3%
C=C1CC[C@@]2(O)[C@H]3Cc4ccc(O)c5c4[C@@]2(CCN3CC2CC2)[C@H]1O5 | inactive: -16.4%
Cc1ccc(-n2c(/C=C/c3cccc4ccccc34)nc3ccccc3c2=O)cc1 | inactive: -19.5%
O=[N+]([O-])O[C@H]1CO[C@H]2[C@@H]1OC[C@H]2O[N+](=O)[O-] | inactive: -17.1%
O=C(CCCN1CCC2(CC1)C(=O)NCN2c1ccccc1)c1ccc(F)cc1 | inactive: -23.7%
Nc1ccc(Cl)cc1N | inactive: -16.3% [at 114 µM]
COc1cccc(CN2C(=O)C3(SCC(=O)N3c3ccc(C)c(Cl)c3)c3ccccc32)c1 (stereo not given) | inactive: -39.3%
CCOC(=O)c1ccc(NC(=O)CSc2nc3c(cc2C#N)N2CCC3CC2)cc1 | inactive: 4.68%
Cc1cccc(Cn2cccc(C(=O)Nc3nc4ccccc4s3)c2=O)c1 | inactive: -9.54%
CCC(=O)C(CC(C)N(C)C)(c1ccccc1)c1ccccc1 (stereo not given) | inactive: -5.16% [at 114 µM]
COc1cccc(-n2c(/C=C/c3cccc(C)c3)nc3ccccc3c2=O)c1 | inactive: -0.406%
NCC1(CC(=O)O)CCCCC1 | inactive: -9.33%
Cc1cccc(-n2c(CC3C(=O)Nc4ccc(C)cc43)nc3ccccc3c2=O)c1 (stereo not given) | inactive: -8.59%
CCOc1ccc(CN(CCc2ccc3c(c2)OCO3)Cc2cc(OC)ccc2O)cc1 | inactive: -7.16%
C=CCC1(C(C)CC)C(=O)NC(=O)NC1=O (stereo not given) | inactive: -15.6%
CO/C=C(/C(=O)OC)c1ccccc1Oc1cc(Oc2ccccc2C#N)ncn1 | inactive: -4.31% [at 114 µM]
Cc1nnc2n1-c1sc(CCc3ccc(CC(C)C)cc3)cc1C(c1ccccc1Cl)=NC2C (stereo not given) | inactive: -13.6%
